We go through 54 sequences from PMC7819943, “Rice protein-binding microarrays: a tool to detect cis-acting elements near promoter regions in rice”.

Some of the results follow.

This assay addresses T1, OsWOX13 (Oryza sativa, UniProt Q5QMM3 1-267).
T1 sequence: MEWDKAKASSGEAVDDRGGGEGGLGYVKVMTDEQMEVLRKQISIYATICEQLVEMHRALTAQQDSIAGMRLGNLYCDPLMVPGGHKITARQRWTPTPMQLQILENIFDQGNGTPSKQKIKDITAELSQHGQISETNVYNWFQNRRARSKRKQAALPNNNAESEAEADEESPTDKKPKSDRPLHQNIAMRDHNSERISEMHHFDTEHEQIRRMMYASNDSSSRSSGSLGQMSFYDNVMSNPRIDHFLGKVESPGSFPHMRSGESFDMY
Kind of assay: protein-binding microarray (RPBM); PBS, 2% BSA, 51.3 ng/ul salmon testes DNA, 50 uM zinc acetate, 200 nM TF, 25 C, 1 h; high values mean tight binding. The following applies: protein: recombinant; tags: N-terminal polyhistidine and DsRed monomer fusion (pET32a); label: CyDye5-dUTP incorporated in the synthesized complementary strand; 3' TTTTT single-stranded linker to array surface; dsDNA, one strand shown. An outline of the steps: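 For the binding signal, per-feature fluorescence intensity was read in arbitrary units on an Axon 4000B scanner. Before scanning, a 2% BSA-blocked custom Agilent array made double-stranded with Cy5-dUTP was washed after 1 h at 25 °C with 200 nM protein and 50 µM zinc acetate. The proteins were Ni–NTA-purified transcription factors with N-terminal polyhistidine and DsRed fusions, expressed in E. coli BL21-CodonPlus.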
Consider “GAGCAAGTAATTGATGGTTTTAGGAACAGGAGAATAGGACCGGAGTCACCTAGTGCAG”, for which the binding signal was 24600 fluorescence intensity (a.u.).

Take “AATAACGTGGATTCAATTATCCCTAGTTTTAAGGGTATAACGGAGTCACCTAGTGCAG”: the binding signal was 3530 fluorescence intensity (a.u.).

Take “CATGTGAGAAGATTGATAATTAATCAGATTGCCTTTGGAACGGAGTCACCTAGTGCAG”: the binding signal is 29900 fluorescence intensity (a.u.).

For the sequence “AATTAATTAGTATTCCGTTCGCTTTATATTATAATAAGTACGGAGTCACCTAGTGCAG”, the binding signal is 34900 fluorescence intensity (a.u.).

Take “ATAATCAACTTAGATTAACTAACATATATGATAAATAGGTCGGAGTCACCTAGTGCAG”: the binding signal is 6880 fluorescence intensity (a.u.).

For the sequence “GTAAATTTAGGGGCAATATGTAGGGGCTTATAGTACTTGCCGGAGTCACCTAGTGCAG”, the binding signal was 5480 fluorescence intensity (a.u.).

For the sequence “ACAACAAATGAACAATCAAATGTCATGCACAGTAAACTACCGGAGTCACCTAGTGCAG”, the binding signal is 4990 fluorescence intensity (a.u.).

For the sequence “GGCAATGAGATTGGAGTGAAATATGGTTGCCCAGTAGAGGCGGAGTCACCTAGTGCAG”, the binding signal is 6380 fluorescence intensity (a.u.).

Regarding “CTTAAACAGACAATTATAACACGTTTATTTCTTCTGTTGACGGAGTCACCTAGTGCAG”, the binding signal was 25100 fluorescence intensity (a.u.).

As for “GCCTAATTAATCCGTCATTAGCAAATGTTTATTGTAGCACCGGAGTCACCTAGTGCAG”, the binding signal was 38200 fluorescence intensity (a.u.).

With “CAGAGGGCCTAATTAACTATCTGATCCGATCAGCATACGACGGAGTCACCTAGTGCAG”, the binding signal is 4980 fluorescence intensity (a.u.).

Turning to “CTTCAGATGATGAACATGTTGATTTTGTTTATCTTCCTTGCGGAGTCACCTAGTGCAG”, the binding signal is 8250 fluorescence intensity (a.u.).

For “GACATGATAGAAAAGTTGTGTGTATAAAAGGTTTGATGTGCGGAGTCACCTAGTGCAG”, the binding signal is 8820 fluorescence intensity (a.u.).

For the sequence “TATATAATTTATTTAATTGGATTTACCAGTTTAAGGGGTTCGGAGTCACCTAGTGCAG”, the binding signal was 54300 fluorescence intensity (a.u.).

Take “CTAAATTTGCCATAAATGTTACTACCCTTTTACCTAATATCGGAGTCACCTAGTGCAG”: the binding signal was 8380 fluorescence intensity (a.u.).

As to “ATTATATTACCAATTAAACTATTACACGCTTGAGTTGCAACGGAGTCACCTAGTGCAG”, the binding signal is 13300 fluorescence intensity (a.u.).

Consider “TATTATTGATGTCTGTAAAAGCTTCATGAATATGAGCATCCGGAGTCACCTAGTGCAG”, for which the binding signal is 5690 fluorescence intensity (a.u.).

Take “AGTGATAGATGATGCTAAGTCCCAGTTGGAAGCCGTATGCCGGAGTCACCTAGTGCAG”: the binding signal is 21300 fluorescence intensity (a.u.).

As for “CTAATAATTAAGTCAATTTTACCATGCAAGTAATAAGGTTCGGAGTCACCTAGTGCAG”, the binding signal is 24600 fluorescence intensity (a.u.).

For the sequence “TATGTTTGGTAATTGGCTACGGGGAATTAGGAAAGACTTGCGGAGTCACCTAGTGCAG”, the binding signal was 14200 fluorescence intensity (a.u.).

As for “TATACCCAATTAAATGGTACATCTAAACTGCATGCATGTACGGAGTCACCTAGTGCAG”, the binding signal is 3400 fluorescence intensity (a.u.).

As for “ACCATATTAACCACATCAATTTGATTGGTTTCATATATAACGGAGTCACCTAGTGCAG”, the binding signal was 34100 fluorescence intensity (a.u.).

“CACATCGCTAATTGCTGAAATTCCATTGTTGCGAGTACTACGGAGTCACCTAGTGCAG”: the binding signal is 13900 fluorescence intensity (a.u.).

For “AAGGTAATTGGATGTAAACTAGATGTGAAATATAATTCTTCGGAGTCACCTAGTGCAG”, the binding signal is 29400 fluorescence intensity (a.u.).

“CACGCGTGTCATGCTCCGTTGATTGGCGTCCGCTTCTATTCGGAGTCACCTAGTGCAG”: the binding signal was 22200 fluorescence intensity (a.u.).

Consider “AGAGATTATTGAATATTGTTGCGATGACTTATAATCTTATCGGAGTCACCTAGTGCAG”, for which the binding signal was 5070 fluorescence intensity (a.u.).

In the case of “AAAGTTAATCAAATTGACTAATTAGTGCTAGATATGTCCTCGGAGTCACCTAGTGCAG”, the binding signal was 60600 fluorescence intensity (a.u.).

Regarding “CTCCCAATATAATTATTTTCTATTTTCACAAACTCAGATACGGAGTCACCTAGTGCAG”, the binding signal is 5940 fluorescence intensity (a.u.).

Turning to “AATGTGGTGGTGGTGGTGGTGAACGGAGGAGGGAGGGAGCCGGAGTCACCTAGTGCAG”, the binding signal was 3760 fluorescence intensity (a.u.).

Take “CGATGATTGTTAGTATACACTATATGTATGGTGTTTATCCCGGAGTCACCTAGTGCAG”: the binding signal was 40600 fluorescence intensity (a.u.).

Regarding “TGGTCAATTACACTGGCTAATTAGCACGCTAGCTTAACACCGGAGTCACCTAGTGCAG”, the binding signal is 48600 fluorescence intensity (a.u.).

For the sequence “CTATAAATGCTGTGACTGATGATAAGTCCAGTGCATTCCACGGAGTCACCTAGTGCAG”, the binding signal was 6700 fluorescence intensity (a.u.).

Take “GTGAAATTTAATGGGAGATAATTATGATCGATTGAGATGACGGAGTCACCTAGTGCAG”: the binding signal is 25900 fluorescence intensity (a.u.).

As for “ATGATTTGCTCATGCTTTAGGAGGCGCGTTACATGGTGGGCGGAGTCACCTAGTGCAG”, the binding signal was 15800 fluorescence intensity (a.u.).

“TATATAATCAATTTAATAGCCAATTCATATATTAGTTACCCGGAGTCACCTAGTGCAG”: the binding signal was 10800 fluorescence intensity (a.u.).

Turning to “GATGGATTAATTAGGCTCAAAAGATTCATCTAACGGTTTTCGGAGTCACCTAGTGCAG”, the binding signal is 6970 fluorescence intensity (a.u.).

With “AATCCCATGATTAGTGCTGCATGATTCCATATAAACTTTTCGGAGTCACCTAGTGCAG”, the binding signal is 20000 fluorescence intensity (a.u.).

In the case of “GGTCTGAAAATTATAAATTATCGCTAAAATTTATGTCGGGCGGAGTCACCTAGTGCAG”, the binding signal is 22500 fluorescence intensity (a.u.).

As for “ACTATTAACTCTTGATTAAGGAACATGGTAAAATTTATACCGGAGTCACCTAGTGCAG”, the binding signal was 4290 fluorescence intensity (a.u.).

On to “ACATTAACTAAATGGTGGAGGGCAGGGGTTCGTCTTTCTTCGGAGTCACCTAGTGCAG”, for which the binding signal was 8750 fluorescence intensity (a.u.).

For the sequence “GCTTAATTTTAATTTCAAACTGAACGCTTGAATACTCAACCGGAGTCACCTAGTGCAG”, the binding signal was 51100 fluorescence intensity (a.u.).

Take “GCCAGTAATTACCACTGAGAGATACTCGCTCCTTGCGATTCGGAGTCACCTAGTGCAG”: the binding signal was 20900 fluorescence intensity (a.u.).

As for “TTCTAATTAGTGTAAAACATGTGATGTGACCCCATCCAAACGGAGTCACCTAGTGCAG”, the binding signal was 16500 fluorescence intensity (a.u.).

On to “CTTGCATGTGAATTGATTGTACCCATTGGATTTTGTTTTCCGGAGTCACCTAGTGCAG”, for which the binding signal is 5800 fluorescence intensity (a.u.).

For “GAGTAAATTAAGCAAGTGGCACCACCCTCCATTTCGCTCTCGGAGTCACCTAGTGCAG”, the binding signal was 5490 fluorescence intensity (a.u.).

Regarding “GCTGTGCAAACACATAATTGGCAGACATAAAGGATATGACCGGAGTCACCTAGTGCAG”, the binding signal is 4700 fluorescence intensity (a.u.).

On to “CTACAAATTTACTCTGACAATGTGTTTATAAAATGATTGCCGGAGTCACCTAGTGCAG”, for which the binding signal was 14400 fluorescence intensity (a.u.).

In the case of “AGTTGATTTATAAGCCTAAATAAATAGGGCCTAAAATTGCCGGAGTCACCTAGTGCAG”, the binding signal was 37000 fluorescence intensity (a.u.).

As for “ATGAATTGACTAAGATATTAAGCAGTATATAAACAACTAACGGAGTCACCTAGTGCAG”, the binding signal is 5440 fluorescence intensity (a.u.).

With “TTTAATTACCTCAGTTGGCTGCAAATTGAGAAGAACTTGTCGGAGTCACCTAGTGCAG”, the binding signal is 16800 fluorescence intensity (a.u.).

For “GCAAATTGAACCAAAATTGATAGTTGACTAGTTGAGGGAGCGGAGTCACCTAGTGCAG”, the binding signal was 38600 fluorescence intensity (a.u.).

Consider “GATAATTAGAGAGATTCTGAGAGGAGAGACTAACGGAAGCCGGAGTCACCTAGTGCAG”, for which the binding signal is 18900 fluorescence intensity (a.u.).

Regarding “CTAAACTAAATAACTGGTAGCGTTTGCTTAGTTACGTATCCGGAGTCACCTAGTGCAG”, the binding signal was 17200 fluorescence intensity (a.u.).

As to “TTATAGTGATTGCTGAGAATGTAAATAACATATTCAGCTACGGAGTCACCTAGTGCAG”, the binding signal is 18100 fluorescence intensity (a.u.).
